According to the supplement of paper PMC8813932:
Where a name gives a salt, the structure may show the parent alone. ± gives the standard deviation of the averaged measurements. The list shows a part of the results. Repeats are few or missing, and single values can be far off.

Legend:
Experiment in all cases: log2 surviving fraction relative to plate median (drug vs vehicle, or drug+dl922-947 vs dl922-947 alone); ovarian cancer lines: OVCAR4 is platinum-sensitive while Ov4Cis resists cisplatin and Ov4Carbo carboplatin; higher = more cell survival
Details in all cases: compound concentration: 10 uM, 192 h
OVCAR4 = system: OVCAR4
Ov4Carbo = system: Ov4Carbo
Ov4Cis = system: Ov4Cis
[1] = dl922-947 oncolytic adenovirus co-treatment: MOI 10
[2] = dl922-947 oncolytic adenovirus co-treatment: none

SMILES	log2 surviving fraction (OVCAR4; [1])	log2 surviving fraction (OVCAR4; [2])	log2 surviving fraction (Ov4Carbo; [1])	log2 surviving fraction (Ov4Carbo; [2])	log2 surviving fraction (Ov4Cis; [1])	log2 surviving fraction (Ov4Cis; [2])
C#C[C@]1(O)CC[C@H]2[C@@H]3CCc4cc(O)ccc4[C@H]3CC[C@@]21C [Ethinyl Estradiol]	-2.19 ± 0.69	-2.63 ± 0.99	-0.131	-1.64	-1.34	-2.82
N[C@@H](Cc1ccc(O)c(O)c1)C(=O)O [Levodopa (Sinemet)]	-0.327 ± 0.41	-0.0447 ± 0.35	0.249	0.69	-0.0414	0.0295
CC(C)c1c(CN(C)C(C)Cc2ccccc2)n(C)n(-c2ccccc2)c1=O (stereo unspecified) [Famprofazone]	-0.543 ± 0.6	-0.375 ± 0.87	1.24	0.862	-0.856	-0.831
CCCOc1ccc2[nH]c(NC(=O)OC)nc2c1 [Oxibendazole]	-4.53 ± 1.3	-7.74 ± 2.8	-4.15	-9.23	-3.38	-6.55
CCn1cc(C(=O)O)c(=O)c2ccc(C)nc21 [Nalidixic acid (NegGram)]	-0.313 ± 0.45	-0.53 ± 0.6	1.16	0.404	0.365	-0.13
CCCCCCCCCCC[C@@H](C[C@@H]1OC(=O)[C@H]1CCCCCC)OC(=O)[C@H](CC(C)C)NC=O [Orlistat (Alli, Xenical)]	-1.13 ± 0.24	-1.6205 ± 4.2e-05	1.98	0.629	-2.79	-1.34
CN1CC2c3ccccc3Oc3ccc(Cl)cc3C2C1 (stereo unspecified) [Asenapine]	-0.803 ± 0.98	-3.52 ± 4	-2.63	1.01	-1.21	-0.0209
Cc1ccccc1N1C(=O)c2cc(S(N)(=O)=O)c(Cl)cc2NC1C (stereo unspecified) [Metolazone (Zaroxolyn)]	-0.74 ± 0.08	-0.267 ± 0.59	-0.835	-0.716	-0.594	-0.36
CCC1=C[C@H]2CN3CCc4c([nH]c5ccccc45)[C@](C(=O)OC)(C2)[C@H]13 [Catharanthine]	-1.07 ± 1	-1.29 ± 1.9	-1.07	-1.92	-1.17	-4.5
NC1CCN(c2c(F)cc3c(=O)c(C(=O)O)cn(C4CC4)c3c2Cl)C1 (stereo unspecified) [Clinafoxacin HCl]	0.61 ± 0.35	-3.33 ± 5.2	1.24	0.376	0.204	-0.597
CC1(C)O[C@@H]2C[C@H]3[C@@H]4CCC5=CC(=O)C=C[C@]5(C)[C@H]4[C@@H](O)C[C@]3(C)[C@]2(C(=O)CO)O1 [Desonide]	1.14 ± 0.069	0.29 ± 0.15	0.686	0.34	1.87	-0.684
CC(C)[C@H](N)C(=O)OCC(CO)OCn1cnc2c(=O)nc(N)[nH]c21 (stereo partly specified) [valganciclovir hydrochloride]	0.0267 ± 0.1	-0.0617 ± 0.3	0.67	0.582	0.0834	0.396
COC(=O)C1=C(C)NC(C)=C(C(=O)OC2CCCN(Cc3ccccc3)C2)C1c1cccc([N+](=O)[O-])c1 (stereo unspecified) [Benidipine hydrochloride]	-0.409 ± 0.11	-1.82 ± 0.14	-0.384	-1.83	-0.846	-2.2
CN(C)[C@@H]1C(O)=C(C(N)=O)C(=O)[C@@]2(O)C(O)=C3C(=O)c4c(O)cccc4[C@@](C)(O)[C@H]3[C@H](O)[C@@H]12 [Oxytetracycline dihydrate]	0.505 ± 1.3	0.555 ± 1.4	0.84	0.308	-0.0671	-0.522
N#C[C@@H]1C[C@@H]2C[C@@H]2N1C(=O)[C@@H](N)C12CC3CC(CC(O)(C3)C1)C2	0.369 ± 1.1	0.45 ± 0.0093	0.0848	0.513	-0.154	0.0291
O=P1(N(CCCl)CCCl)NCCCO1 (stereo unspecified) [Clafen (Cyclophosphamide)]	0.164 ± 0.21	-2.95 ± 4.8	2.34	1.66	0.26	0.0433
CC(=O)CCCCn1c(=O)c2c(ncn2C)n(C)c1=O [Pentoxifylline]	0.314 ± 0.39	-0.456 ± 1.3	-0.00997	0.248	-0.296	0.406
CC(=O)O[C@H]1C[C@@H]2CC[C@@H]3[C@H](CC[C@@]4(C)[C@H]3C[C@H]([N+]3(C)CCCCC3)[C@@H]4OC(C)=O)[C@@]2(C)C[C@@H]1N1CCCCC1 [Vecuronium Bromide]	0.626 ± 0.83	0.274 ± 0.23	0.43	-0.376	0.356	0.0581
NC(=O)N1c2ccccc2C=Cc2ccccc21 [Carbamazepine (Carbatrol)]	0.533 ± 0.36	-0.123 ± 0.91	-0.0682	-0.409	0.0641	0.251
O=C(O)c1cccnc1Nc1cccc(C(F)(F)F)c1 [Niflumic acid]	-1.35 ± 0.14	-0.475 ± 0.36	0.216	-0.297	-0.162	-0.57
Nc1nc(=O)[nH]cc1F [Flucytosine (Ancobon)]	0.966 ± 1.6	0.784 ± 1.1	0.645	1.8	-0.394	0.228
CO[C@H]1/C=C/O[C@@]2(C)Oc3c(C)c(O)c4c(O)c(c(/C=N/N5CCN(C6CCCC6)CC5)c(O)c4c3C2=O)NC(=O)/C(C)=C\C=C\[C@H](C)[C@H](O)[C@@H](C)[C@@H](O)[C@@H](C)[C@H](OC(C)=O)[C@@H]1C [Rifapentine (Priftin)]	-0.691 ± 0.45	-1.74 ± 0.46	0.845	-1.36	-0.0451	-1.82
O=P(O)(O)C(Cl)(Cl)P(=O)(O)O [Clodronate Disodium]	0.739 ± 0.33	0.641 ± 0.36	0.0089	0.636	0.897	0.814

SMILES	log2 surviving fraction (OVCAR4; [1])	log2 surviving fraction (OVCAR4; [2])	log2 surviving fraction (Ov4Carbo; [1])	log2 surviving fraction (Ov4Carbo; [2])	log2 surviving fraction (Ov4Cis; [1])	log2 surviving fraction (Ov4Cis; [2])
CN(C/C=C/C#CC(C)(C)C)Cc1cccc2ccccc12 [Terbinafine (Lamisil, Terbinex)]	-0.0137 ± 0.071	-0.161 ± 0.21	-0.341	-0.122	0.333	-0.333
CC[C@@H]1/C=C(\C)C[C@H](C)C[C@H](OC)[C@H]2O[C@@](O)(C(=O)C(=O)N3CCCC[C@H]3C(=O)O[C@H](/C(C)=C/[C@@H]3CC[C@H](Cl)[C@H](OC)C3)[C@H](C)[C@@H](O)CC1=O)[C@H](C)C[C@@H]2OC [Pimecrolimus]	0.067 ± 0.47	-2.61 ± 0.65	-0.801	-4.74	-1.77	-3.38
Cc1ccc(C(=O)c2cc(O)c(O)c([N+](=O)[O-])c2)cc1 [Tolcapone]	0.603 ± 0.58	0.975 ± 1.6	-0.741	2.49	-0.314	0.774
CCCNCC(O)COc1ccccc1C(=O)CCc1ccccc1 (stereo unspecified) [Propafenone (Rytmonorm)]	-1.15 ± 0.071	-1.05 ± 0.34	-1.22	-0.765	-2.77	-1.06
CCCc1cc(C(N)=S)ccn1 [Protionamide (Prothionamide)]	0.374 ± 1.6	-0.47 ± 1.1	0.835	-0.00748	-0.26	-0.639
CC(C)[C@H]1CC[C@H](C(=O)N[C@H](Cc2ccccc2)C(=O)O)CC1 [Nateglinide (Starlix)]	0.544 ± 0.12	0.37 ± 0.16	1.75	0.85	-0.0416	0.0791
CN(C/C=C/c1ccccc1)Cc1cccc2ccccc12 [Naftifine HCl]	-0.385 ± 0.2	-0.155 ± 0.12	0.559	-0.656	0.672	-0.0884
CC(=O)O[C@]1(C(C)=O)CC[C@H]2[C@@H]3C[C@H](C)C4=CC(=O)C=C[C@]4(C)[C@@]3(F)[C@@H](O)C[C@@]21C [Fluorometholone Acetate]	2.12 ± 0.7	0.781 ± 0.25	0.946	0.57	3.01	-0.779
Cc1cn([C@@H]2C[C@@H](O)[C@H](CO)O2)c(=O)[nH]c1=O [Telbivudine (Sebivo, Tyzeka)]	0.382 ± 0.25	0.6 ± 0.32	-0.471	0.27	-0.0708	0.66
CNC1CC(N)C(O)C(OC2OC(CO)C(O)C3OC4(OC(C(N)CO)C(O)C(O)C4O)OC23)C1O (stereo unspecified) [Hygromycin B]	-1.34 ± 0.43	-1.82 ± 0.53	0.564	-1.47	-1.1	-0.431
NC(=O)Cc1cccc(C(=O)c2ccccc2)c1N [Nepafenac]	0.873 ± 0.52	3.54 ± 2.3	1.56	2.43	1.03	2.05
CC[C@H](C)C(=O)O[C@H]1C[C@H](O)C=C2C=C[C@H](C)[C@H](CC[C@@H](O)C[C@@H](O)CC(=O)O)[C@H]21 [Pravastatin sodium]	-0.154 ± 0.68	0.265 ± 0.43	0.572	0.0614	-0.0606	-0.874
CC[C@H]1CN2CCc3cc(OC)c(OC)cc3[C@@H]2C[C@@H]1C[C@H]1NCCc2cc(OC)c(OC)cc21 [Emetine]	-8.56 ± 0.86	-10.8 ± 7.2	-5.73	-11.3	-4.86	-12
Nc1ccc(C(=O)O)c(O)c1 [Aminosalicylate sodium]	0.111 ± 0.65	0.043 ± 0.029	0.718	-0.0857	-0.653	-0.819
NNC(=O)c1ccncc1 [Isoniazid (Tubizid)]	0.415 ± 0.33	0.421 ± 0.057	-0.363	0.291	-0.0935	0.59
CC[C@H]1OC(=O)C[C@@H](O)[C@H](C)[C@@H](O[C@@H]2O[C@H](C)[C@@H](O)[C@H](N(C)C)[C@H]2O)[C@@H](CCN2C[C@H](C)C[C@H](C)C2)C[C@@H](C)C(=O)/C=C/C(C)=C/[C@@H]1CO[C@@H]1O[C@H](C)[C@@H](O)[C@@H](OC)[C@H]1OC [Tilmicosin]	0.433 ± 0.12	0.346 ± 0.64	0.288	0.504	0.0977	-1.97
C/C(=C(\CCOP(=O)(O)O)SC(=O)c1ccccc1)N(C=O)Cc1cnc(C)nc1N [Benfotiamine]	-0.208 ± 0.68	-0.816 ± 0.4	-0.523	0.403	-0.476	0.576
C[C@]12C=CC(=O)C=C1CC[C@@H]1[C@@H]2C(=O)C[C@@]2(C)[C@H]1CC[C@]2(O)C(=O)CO [Prednisone (Adasone)]	0.814 ± 2	0.439 ± 0.14	-0.191	0.0468	-0.163	0.281
Clc1ccc(CCC(Cn2ccnc2)Sc2c(Cl)cccc2Cl)cc1 (stereo unspecified) [Butoconazole nitrate]	-0.538 ± 0.32	-1.9 ± 0.46	-0.734	-5.3	-0.667	-0.678
Cn1cnc([N+](=O)[O-])c1Sc1ncnc2[nH]cnc12 [Azathioprine (Azasan, Imuran)]	-0.729 ± 0.072	-3.76 ± 1.5	-0.743	-5.78	-0.331	-1.69
CN1C2=CC(=O)/C(=N\NC(N)=O)C=C2CC1S(=O)(=O)O (stereo unspecified) [Carbazochrome sodium sulfonate]	0.318 ± 0.66	-0.203 ± 0.13	0.747	0.339	-0.721	0.355
CCn1nc(C(=O)O)c(=O)c2cc3c(cc21)OCO3 [Cinoxacin]	-0.0568 ± 0.15	-0.0842 ± 1.1	-1.07	0.139	0.955	-0.685
CN(C)CCCN1c2ccccc2CCc2ccc(Cl)cc21 [Clomipramine hydrochloride (Anafranil)]	-3.01 ± 0.81	-2.14 ± 0.33	-3.01	-4.54	-2.98	-2.14
